Reference: the RNAGym collection of RNA variant scans (doi:10.7554/elife.90254)
Read counts are not given, so values of variants with three or more changes are uncertain.

B1: LINE1-mini (parent)
chain: GGCAGAGCUCAACACAGCGUGGCAAAGUGGCUGUGGCUAGACUGCC

Variants of: B1
Assay: self-cleavage, relative activity (ratio to wild type); higher = more cleavage; in vitro, sequencing; the parent is a self-cleaving ribozyme

Variant	self-cleavage
A25G G30C U34A G36U C37U	0.01
A26G C37U G40A	0.1
A24G G30U U38C A39G G44U	0.04
A24G G36C U43A	0.05
A24G G36C U43C	0.04
A25U G35C A41G	0.05
A24U A26U C31U	0.04
A24U U28G G29C G44U	0.13
A25G G30U C37G C46U	0.05
A24G G27C C45U	0.68
A26C G30U G33U C45A	0.06
A25U G33A C46U	0.14
A26C U43C G44A	0.04
A25G G29A U34C C45U	0.08
A24U G40A C46U	0.03
A25G C42U C45U	0.02
A25C C31A G36C C37A C42A U43C	0.01
A26G C37G C46A	0.02
A25C C31U G35U	0.01
A25C U28A G30A U34C	0.05
A25G A26U G35A C42G	0.01

Variant	self-cleavage
A24G U38A U43C	0.03
A26G G29C U34A C46A	0.52
A26C U28C C31U	0.05
A24U G33U C37A U43C	0.03
A26G G27A U28G	0.4
A25C G29A U32C G33U U34A	0.04
A25U U28A C45G	0.04
A25U G29U G30A	0.99
A26C U28A G29C G35C	0.04
A24U C31A G36C	0.12
A26C G29A U32G	0.3
A24G U34G A41G	0.03
A25U U32C C37U	0.08
A25G G30C G35A	0.02
A24G U34C G44A	0.02
A24G G30A C31A G33A	0.4
A25G G29A G30A	0.13
A26C U34G A39C	0.14
A25C A26U G29U	2.59
A24G G36C C45G	0
A25U G36U C46G	0.02

Variant	self-cleavage
A25U C45A C46G	0.05
A24U C37G A39U	0.05
A25U G29U C31U U38C G44U	0.02
A25U G29U C37G U43G C45A	0
A25U U32C U38A	0.05
A25C U34A G36C C46G	0.06
A24U G30C G40C A41U C45G	0.03
A25C G27A U28A U32C	0.27
A24G U32A G44A	0.06
A26C G33C C37A	0.06
A25U G30C C31U	1.64
A26C G30U U38C C46U	0.6
A24U U32G C37U G44U	0.14
A24G U32G G44C	0.12
A25G G30C G36C	0.06
A25U U32G A41U	0.1
A25C U34A A41U	0.04
A25U G35C C42A	0.02
A26C C37A C42A U43G C46A	0
A24U U34A A39C C46U	0.04
A26G C31U G36C	0.13

Variant	self-cleavage
A26G C31U G36U	0.08
A25C G27U C31U U34A	0.02
A24U C31U U34A	0.03
A25U U28C G30U G44A C46G	0.07
A24U C31U C42U	0.05
A25G A26G C45U C46U	0.05
A25C U43G C46U	0.07
A24U G35A A41U	0.08
A25U G29U U38C	0.66
A25G G35C U38C	0.04
A26G G29C C46G	0.32
A26C C31A C42U	0.13
A25G G30U G35A G36A	0.02
A25C A26U C31A	0.01
A25C G33U G40C	0.07
A24U U32A G33C A41U	0.17
A26C G27C G36U	0.02
A25U G35A A39G U43C	0.04
A25G C31A C37G	0.02
A25C G27U C37A A41U	0.06
A25G G27C G40C	0
